# In PubChem BioAssay AID463173 (ICCB-Longwood Screening Facility, Harvard Medical School, 2010):
# The whole screen tested about 52,000 compounds, of which about 1,700 (3.3%) were called active. No stated cut-off is given here; in the data, active means survival mostly below about 52% (no sharp cut-off); inactive means mostly above about 56%. The list shows a part of the results.
# System: Wild type
# Assay: growth inhibition of S. aureus wild type versus tarO mutant, primary screen, teichoic acid synthesis inhibitors, RN4220, OD600 (AID 463173)
# Conditions: S. aureus RN4220 wild type/DeltatarO growth, OD600, 18 h, stronger effect = lower value, screened at 18.75 µg/mL (by protocol)
row,Structure (SMILES),survival
1,CC(C)(C)c1nn(-c2ccccc2)c2[nH]c(=O)c(CNc3ccc4c(c3)OCO4)cc12,inactive: 90%
2,CC(=O)Nc1ccc(C)cc1-c1nc2ccccc2n(CC(=O)c2ccc(Cl)cc2)c1=O,inactive: 104%
3,CC(=O)N(Cc1cccnc1)c1nc2ccc(F)cc2s1,inactive: 68%
4,COc1cccc2cc(-c3cn4c(n3)sc3cc(F)ccc34)c(=O)oc12,inactive: 75%
5,Cc1ccc(C2=Nc3ccccc3N(CC(=O)Nc3ccccc3C)C(=O)C2)cc1C,inactive: 85%
6,Cc1ccc(CNC(=O)NC2COc3ccccc3C2)cc1 (stereo unspecified),inactive: 94%
7,CCOc1ccccc1C(=O)N1CCN(CCc2ccccn2)CC1,inactive: 84%
8,Cc1cc(C)c(NC(=O)Cn2c(=O)n(CCc3ccccc3)c(=O)c3ccccc32)c(C)c1,inactive: 101%
9,Cc1ccc(N2CCn3c2nc2c3c(=O)n(CCCc3ccccc3)c(=O)n2C)cc1,inactive: 84%
10,O=C1CCCCCN1Sc1ccccc1,inactive: 91%
11,COc1ccc(OC)c(CNC(=O)c2ccccc2NC(=O)c2nsc3ccccc23)c1,inactive: 76%
12,Cc1c(Cl)cccc1NC(=O)Cn1nc(C(F)(F)F)c2c1CCC2,inactive: 71%
13,N#Cc1c2c(c(Nc3ccc(O)cc3)n3c1nc1ccccc13)CCC2,inactive: 102%
14,Cc1ccc(NC(=O)C2CCCN(S(=O)(=O)c3cccc4cccnc34)C2)c(Br)c1 (stereo unspecified),inactive: 63%
15,COc1ccc(CCNC(=O)c2c(C)oc3nc(C)nc(N4CCOCC4)c23)cc1OC,inactive: 75%
16,Cc1cc(C)n(-c2nc3ccccc3nc2Nc2cccc(C(=O)NCCc3ccccc3)c2)n1,inactive: 92%
17,C#CCNc1nc(CC(C)C)nc2c1nnn2Cc1ccccc1,inactive: 101%
18,CCN1CCOC(=O)C1CC(=O)Nc1cccc(OC)c1 (stereo unspecified),inactive: 69%
19,Cn1cc(S(=O)(=O)N2CCCCCC2)cc1C(=O)NCc1ccc(Cl)cc1,inactive: 110%
20,CC1=C(C(=O)Nc2ccccc2)C(c2cccc(O)c2)n2nc(-c3ccccc3Cl)nc2N1 (stereo unspecified),inactive: 69%
21,Cc1onc(-c2ccccc2Cl)c1C(=O)Oc1ccc(Br)cc1,active: 4%
22,COc1ccc(S(=O)(=O)NNC(N)=S)cc1,inactive: 90%
23,C#CCn1c(/C=C/c2ccc(Cl)cc2)nc2ccccc21,active: 23%

row,Structure (SMILES),survival
1,CC(C)CC(=O)NCC(c1ccc2c(c1)OCO2)N1CCN(c2ccccc2F)CC1 (stereo unspecified),inactive: 76%
2,CCN(c1ccc(OC)cc1)S(=O)(=O)c1nnc(NC(=O)COc2ccc(F)cc2)s1,inactive: 71%
3,Cc1ccccc1NC(=O)N1CCCC(c2nc(-c3ccc(F)cc3)no2)C1 (stereo unspecified),inactive: 111%
4,Cc1cccc(NC(=O)Cn2c(=O)sc3ccccc32)c1,inactive: 119%
5,Cc1cccc(-c2nc(SCC(=O)NCC3CCCO3)c3c(=O)n(C)c(=O)n(C)c3n2)c1 (stereo unspecified),inactive: 128%
6,Cc1ccccc1N(C)C(=O)c1noc2c1COc1ccccc1-2,inactive: 90%
7,C=CCNC(=O)CSc1nc2cc(C)cc(C)c2cc1C#N,inactive: 100%
8,C=Cn1cc[n+](CC(=O)c2ccc(OC)cc2)c1,inactive: 119%
9,CCOC(=O)c1ccc(NC(=O)Nc2ccc3snnc3c2)cc1,inactive: 146%
10,CCOc1ccc(-c2noc(CSc3nnc(-c4ccccc4)n3-c3ccccc3)n2)cc1,inactive: 75%
11,O=C(CCn1c(=O)c2cccn2c2cccnc21)NCc1ccccc1Br,inactive: 93%
12,CN1C(=O)c2ccccc2Sc2ccc(NC(=O)Cc3c(F)cccc3Cl)cc21,inactive: 72%
13,CCC(CC)C(=O)Nc1ccc(C(=O)OCc2cc(=O)n3nc(C4CC4)sc3n2)cc1,inactive: 87%
14,CCC(=O)Nc1ccc(C)cc1-c1nc2ccccc2n(C(C)C(=O)Nc2ccccc2CC)c1=O (stereo unspecified),inactive: 121%
15,COc1cccc(CNC(=O)CN2N=C(c3ccc(C)cc3)CCC2=O)c1,inactive: 82%
16,Cc1ccc(-n2nc(C(=O)N3CCN(c4ccccc4F)CC3)c3c4ccccc4n(C)c3c2=O)cc1,inactive: 79%
17,CCN(CC)CCCNC(=O)CCCn1c(=O)[nH]c2ccc(Br)cc2c1=O,inactive: 63%
18,CC(=O)c1ccccc1NS(=O)(=O)c1cc2c(cc1C)NC(=O)CO2,inactive: 79%
19,Cc1ccc(N(C)S(=O)(=O)c2ccc3c(c2)C(C)(C)C(=O)N3C)cc1C,inactive: 87%
20,O=C(NCc1ccccc1Cl)c1cccn1-c1nnc(N2CCCCC2)s1,inactive: 75%
21,CCC(C(=O)N1CCN(c2cc(Cl)ccc2C)CC1)n1nc(C)c2sc3ccccc3c2c1=O (stereo unspecified),inactive: 76%
22,Cc1ccc(Cl)cc1N1CCN(C(=O)c2cccn2-c2nnc(N3CCCCC3)s2)CC1,inactive: 73%
23,Fc1cccc(Cl)c1CNc1n[nH]c(-c2ccco2)n1,inactive: 83%

row,Structure (SMILES),survival
1,CC(C)CCNC(=O)c1ccc(Cn2c(SCC(=O)NC(C)C)nc3ccccc3c2=O)cc1,inactive: 148%
2,COc1cc(Cl)ccc1OC(=O)c1cn(-c2ccccc2OC)c(=O)c2ccccc12,inactive: 73%
3,Cc1csc(NC(=O)/C=C\C(=O)O)n1,inactive: 99%
4,CC1C(=O)Nc2ccc(S(=O)(=O)Nc3ccccc3Br)cc2NC1=O (stereo unspecified),inactive: 89%
5,O=C(Nc1ccccc1)c1ccco1,inactive: 109%
6,Cc1ccc2nc(Cl)c3cc(C(=O)NCCCN4CCC(C)CC4)sc3c2c1,inactive: 98%
7,Cc1cc(NC(=O)c2ccc(-c3ccc(Br)cc3)o2)cc(-c2nc3ncccc3o2)c1O,inactive: 78%
8,COc1ccc2c(c1)c1c(c(=O)n(-c3ccccc3)c(=O)n1CC(=O)Nc1ccc(F)cc1)n2C,inactive: 69%
9,CCc1ccc(-n2c(SCC(=O)NC(C)CC)nc3n[nH]c(C)c3c2=N)cc1 (stereo unspecified),inactive: 124%
10,COc1ccc(N2CC(NC(=O)c3ccc4c(c3)OCO4)CC2=O)cc1OC (stereo unspecified),inactive: 74%
11,COc1ccc(NC(=O)Cc2csc(COc3cccc(C)c3)n2)cc1OC,inactive: 84%
12,Cc1ccc(C)c(S(=O)(=O)c2nnn3c2nc(NCc2cccs2)c2sccc23)c1,inactive: 58%
13,CCc1cc2c(cc3c(=O)n(CC(=O)N4CCCCC4)nc(CC)n32)s1,inactive: 71%
14,CCCCN(C)CC(O)Cn1cc(/C=C/C(=O)c2ccc(OC)c(OC)c2)c2ccccc21 (stereo unspecified),inactive: 87%
15,CCCn1ccc2c(OCC(=O)NCc3ccc(F)cc3)cccc2c1=O,inactive: 47%
16,Cc1ccc(-c2nc(S(=O)(=O)c3ccc(Cl)cc3)c(N3CCCCC3)o2)cc1,active: 5%
17,COc1ccc(CNC(=O)Cn2nnc(-c3ccccc3F)n2)cc1,inactive: 87%
18,COc1ccc(Cl)cc1C(=O)Nc1ccc2oc(-c3ccc(C(C)(C)C)cc3)nc2c1,inactive: 74%
19,CCn1c(=O)c2c(n3c(=S)[nH]nc13)-c1ccccc1CC21CCCCC1,inactive: 109%
20,CCCSC1=NC2(CCN(C(=O)NC3CCCCC3)CC2)N=C1c1ccccc1,inactive: 94%
21,NC(=S)NN1N=C(c2ccccc2)CC1=O,inactive: 109%
22,CCCSc1ncc(Cl)c(C(=O)Nc2sc3c(c2C(=O)NCC)CCCC3)n1,inactive: 85%
23,CC(C)c1nnc(NC(=O)c2nc(SCc3ccc(F)cc3)ncc2Cl)s1,inactive: 58%

row,Structure (SMILES),survival
1,Cc1ccc2[nH]c(=O)c(CN(Cc3cccnc3)S(=O)(=O)c3ccccc3)cc2c1,inactive: 102%
2,CC(C)(C)Sc1ccc(SC#N)s1,active: 23%
3,CSc1ncc(Cl)c(C(=O)Nc2nc3ccc(F)cc3s2)n1,inactive: 92%
4,COc1cccc(NC(=O)CN(Cc2ccccc2)S(=O)(=O)c2ccc3nc(C)sc3c2)c1,inactive: 118%
5,Cc1nn(CCCC(=O)NCc2cccc(F)c2)c(=O)c2nn(-c3ccccc3)c(C)c12,inactive: 84%
6,COc1ccc(OC)c(-c2nc(C(N)=O)c3c(n2)n(-c2ccc4c(c2)OCO4)c(=O)n3C)c1,inactive: 71%
7,CCOc1ccc(CNCc2c(C(=O)O)c(C)n(Cc3ccc(F)cc3Cl)c2C)cc1,inactive: 144%
8,C#CCOc1nc(OCC#C)nc(N(c2ccccc2)c2ccccc2)n1,inactive: 110%
9,CCN1CCN(C(=O)c2ccc3c(c2)N(Cc2ccccc2)C(=O)c2ccccc2S3=O)CC1 (stereo unspecified),inactive: 92%
10,CN1C(=O)SC(Nc2ccccc2)C1=O (stereo unspecified),inactive: 95%
11,CN(C)c1ccc(-c2nnc(-c3ccc(S(=O)(=O)C(F)F)cc3)o2)cc1,inactive: 103%
12,CCCCc1nn2c(=O)cc(COC(=O)c3cccc(NC(=O)c4cccc(C)c4)c3)nc2s1,inactive: 80%
13,CCOC(=O)c1c(S(=O)(=O)NCC(=O)Nc2ccc(Cl)c(C(F)(F)F)c2)c(C)n(C)c1C,inactive: 83%
14,Cc1ccc(CN2CCCn3nc(C(=O)NCc4ccccc4Cl)cc3C2=O)cc1,inactive: 69%
15,Cc1ccc(NC(=O)CN(C)S(=O)(=O)c2ccc3c(c2)CCC(=O)N3)c(C)c1,inactive: 76%
16,COc1ccccc1C(=O)c1c(N)c(-c2nc(-c3ccccc3)cs2)c2ccccn12,inactive: 105%
17,CCCCN(CC)C(=O)CCn1c(=O)c2cccn2c2cccnc21,inactive: 81%
18,Cc1ccc(NC(=O)Cn2nc(-c3ccc(F)cc3)c3cnc4ccc(C)cc4c32)cc1,inactive: 130%
19,CCCN1CCN(c2ncc3c(n2)CCN(Cc2ccc(OC)c(OC)c2OC)C3)CC1,inactive: 59%
20,COc1ccccc1-c1noc(-c2ccc(N(C)Cc3ccccc3)c([N+](=O)[O-])c2)n1,inactive: 79%
21,CCCCNC(=O)CN1C(=O)CSc2ccc(S(=O)(=O)N3CCC(C)CC3)cc21,inactive: 92%
22,CC(=O)c1cccc(N(C(=O)Cn2nnc3ccccc32)C(C(=O)NCc2ccccc2)c2ccc(F)cc2)c1 (stereo unspecified),inactive: 106%
